Experimental data taken from PubChem BioAssay AID504332 (National Center for Advancing Translational Sciences (NCATS), 2011).
Screen size: about 350,000 compounds; about 31,000 (8.9%) were called active. This list was built around the results that the source calls inconclusive (neither active nor inactive); the mix of calls is not that of the screen. Calls follow the shape of the dose curve; as a rule, active = well fitted inhibition curve with a large enough effect; inconclusive = small, poorly fitted or top-dose-only effect; inactive = no such curve, though single readings can be large or run the other way. Where the call is inconclusive, the potency comes from a doubtful curve fit.

What follows are compounds tested against Histone-lysine N-methyltransferase EHMT2 (Homo sapiens) (UniProt Q96KQ7) (assay: qHTS Assay for Inhibitors of Histone Lysine Methyltransferase G9a). Details: G9a H3K9 monomethylation, AlphaScreen, 2 h; activity, negative = inhibition: at 59 µM (top of the series) unless noted.
UniProt Q96KQ7, sequence (Q96KQ7 whole entry, looked up): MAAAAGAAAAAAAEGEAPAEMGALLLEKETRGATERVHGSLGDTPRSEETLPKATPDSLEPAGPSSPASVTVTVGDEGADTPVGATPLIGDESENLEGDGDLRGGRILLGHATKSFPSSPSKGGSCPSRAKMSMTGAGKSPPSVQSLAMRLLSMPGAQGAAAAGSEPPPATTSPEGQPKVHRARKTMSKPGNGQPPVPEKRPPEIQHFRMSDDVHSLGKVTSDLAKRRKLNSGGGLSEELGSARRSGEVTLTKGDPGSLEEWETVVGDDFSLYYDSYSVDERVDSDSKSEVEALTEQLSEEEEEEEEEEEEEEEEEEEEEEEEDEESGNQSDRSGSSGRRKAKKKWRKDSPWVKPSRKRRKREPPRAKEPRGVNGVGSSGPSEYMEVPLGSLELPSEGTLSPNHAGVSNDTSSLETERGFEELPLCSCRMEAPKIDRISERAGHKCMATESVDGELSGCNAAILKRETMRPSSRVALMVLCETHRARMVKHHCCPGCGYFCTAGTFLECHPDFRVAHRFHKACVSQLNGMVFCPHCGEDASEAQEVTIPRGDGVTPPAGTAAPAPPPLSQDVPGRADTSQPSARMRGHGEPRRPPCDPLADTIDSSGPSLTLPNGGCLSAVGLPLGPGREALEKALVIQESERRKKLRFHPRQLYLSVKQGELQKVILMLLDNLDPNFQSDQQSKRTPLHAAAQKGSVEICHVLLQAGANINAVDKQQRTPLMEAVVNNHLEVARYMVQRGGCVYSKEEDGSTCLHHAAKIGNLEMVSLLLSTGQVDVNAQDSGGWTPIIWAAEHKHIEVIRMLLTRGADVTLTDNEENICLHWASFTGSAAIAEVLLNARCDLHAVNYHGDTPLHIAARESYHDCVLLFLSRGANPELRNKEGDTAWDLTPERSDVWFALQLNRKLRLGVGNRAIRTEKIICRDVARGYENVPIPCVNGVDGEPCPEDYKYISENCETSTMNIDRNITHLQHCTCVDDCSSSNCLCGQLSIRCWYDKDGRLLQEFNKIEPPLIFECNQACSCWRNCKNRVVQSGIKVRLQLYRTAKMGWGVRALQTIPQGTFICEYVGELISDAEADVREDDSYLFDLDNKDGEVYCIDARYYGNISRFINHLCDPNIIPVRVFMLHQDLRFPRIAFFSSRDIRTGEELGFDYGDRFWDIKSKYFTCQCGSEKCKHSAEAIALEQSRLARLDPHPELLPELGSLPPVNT
Procedure, shortened: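 Using a bead-based AlphaScreen, monomethylated H3K9 product from 2 h room-temperature reactions (G9a 20 nM, peptide 500 nM, SAM 20 uM) was detected with 0.5 ug/mL rabbit anti-H3K9me1 antibody.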
% is scaled to controls: 0 for no effect and ±100 for the full control effect; potency is read from the fitted curve at half-maximal effect; tags tell the direction and shape of the fitted curve.
Also: nearly all actives have a fitted effect of over 75% in size.

| Compound | Potency | activity, negative = inhibition |
| --- | --- | --- |
| O=C(/C=C/c1c[nH]c2ccccc12)c1ccccc1 | inactive | – |
| COc1ccc(NS(=O)(=O)c2ccc(N3CCCC3=O)cc2)cn1 | inactive | – |
| Cc1c(C(=O)OCC(=O)NC2CCCCC2)oc2ccccc12 | inactive | – |
| Clc1ccc(-c2nnc3sc(Cc4cccs4)nn23)cc1 | active: 35.5 µM | – |
| Cc1ccccc1-n1c(SC/C(O)=C(\C#N)c2nc3ccccc3[nH]2)nnc1-c1ccncc1 | inconclusive: 79.4 µM [inhibitor, single point] | – |
| COc1ccc(-n2nc(C(=O)NCCCN3CCOCC3)c3ccccc3c2=O)c(OC)c1 | inactive | – |
| C=C(C)CNC(=S)Nc1nc2c(cc1C(=O)OCC)CCCC2 | inconclusive: 89.1 µM [inhibitor, single point] | – |
| O=C(CN1CCc2ccccc2C1)Nc1ccccc1N1CCCCCC1 | – | inconclusive: -136% [inhibitor] |
| COc1ccccc1N(CC(=O)NCCc1ccccc1)C(=O)CCC(=O)Nc1nccs1 | inactive | – |
| COc1ccc(C)cc1NC(=O)CC1NCCNC1=O (centres undefined) | inactive | – |
| CC(C)CC(=O)c1c[nH]c(C(=O)NCc2cccs2)c1 | active: 0.224 µM | – |
| O=C(COc1ccccc1)N1CCN(c2ccc([N+](=O)[O-])c(N3CCCCC3)c2)CC1 | inconclusive: 25.1 µM [inhibitor, single point] | – |
| CN1CCN(Cc2c(O)ccc3cc(Br)ccc23)CC1 | active: 5.01 µM | – |
| C/C(=N\NC(=O)c1csc(C)c1C)c1ccc(Cl)s1 | inconclusive: 0.112 µM [inhibitor, full curve, poor fit] | – |
| COc1ccc(C(=O)C2C(c3ccc(-c4ccccc4[N+](=O)[O-])o3)NC(=O)NC2(O)C(F)(F)F)cc1 (centres undefined) | inconclusive: 22.4 µM [inhibitor, single point] | – |
| Cc1nn(-c2ccccc2)c(Cl)c1/C=N/Nc1ccc(Cl)c(C(=O)O)c1 | active: 3.55 µM | – |
| CN(C)CCOc1ccccc1C(C)(C)C | inconclusive: 3.98 µM [inhibitor, full curve, poor fit] | – |
| C=CCC(O)(CC=C)CNC(=O)C1CCC(=O)N(CCCc2ccccc2)C1 (centres undefined) | inconclusive: 89.1 µM [inhibitor, single point] | – |
| CC(=O)NS(=O)(=O)c1cccnc1Nc1cccc(Cl)c1C | inconclusive: 100 µM [inhibitor, single point] | – |
| O=C(CSc1nnc(-c2ccc(F)cc2)o1)N1CCN(C(=O)c2ccco2)CC1 | inconclusive: 1.12 µM [inhibitor, partial curve, poor fit] | – |
| O=C(c1ccc(Cl)c(S(=O)(=O)N2CCCCC2)c1)N1CCCC1 | inactive | – |
| CC(C)(C)C(=O)COC(=O)c1ccc2c(c1)C(=O)N(Cc1ccco1)C2=O | inconclusive: 89.1 µM [inhibitor, single point] | – |
| Cc1ccc(N2C(=O)C3ON(c4ccccc4)C(CC(C)C)C3C2=O)cc1 (centres undefined) | inactive | – |

| Compound | Potency | activity, negative = inhibition |
| --- | --- | --- |
| CCC(C)NC(=O)CNC(=O)c1nn(-c2ccc(OC)cc2OC)c(=O)c2ccccc12 (centres undefined) | – | inactive: -27.8% [at 2.33 µM] |
| CC(=O)Nc1ccc(S(=O)(=O)Nc2nccc(/C=C/c3ccccc3F)n2)cc1 | inactive | – |
| COc1cc(C2Nc3cc(Cl)c(S(N)(=O)=O)cc3S(=O)(=O)N2)cc(OC)c1OC (centres undefined) | inactive | – |
| COc1ccc(/C=C2\SC(=S)NC2=O)cc1OS(=O)(=O)c1ccc(NC(C)=O)cc1 | inconclusive: 44.7 µM [inhibitor, partial curve, poor fit] | – |
| CCOC(=O)c1c(N)sn(-c2ccccc2C)c1=S | active: 5.62 µM | – |
| COc1cccc(-n2cnc3cccc(N)c32)c1 | – | inconclusive: -57.9% [inhibitor] |
| COc1ccccc1CNC(=O)c1ccc(OCc2c(C)noc2C)c(OC)c1 | inconclusive: 31.6 µM [inhibitor, partial curve, poor fit] | – |
| Cc1ccc(NC(=O)c2cc([N+](=O)[O-])ccc2N2CCOCC2)cc1S(=O)(=O)N1CCOCC1 | inconclusive: 89.1 µM [inhibitor, single point] | – |
| COc1ccccc1-c1noc(-c2ccc(NC3CCCC3)c([N+](=O)[O-])c2)n1 | inactive | – |
| Cc1cc2nc(-c3ccc(NC(=O)c4ccccc4F)cc3)oc2cc1C | inactive | – |
| O=C1NC(c2ccc(Br)cc2)Nc2sc3c(c21)CCC3 (centres undefined) | – | inconclusive: -90.4% [inhibitor] |
| Cn1ccnc1SCC(=O)Nc1cccc(S(=O)(=O)N2CCCCC2)c1 | inconclusive: 44.7 µM [inhibitor, partial curve, poor fit] | – |
| O=C(O)C/C(=C\c1cc(Cl)c2c(c1)OCO2)c1nc2ccccc2s1 | inconclusive: 89.1 µM [inhibitor, single point] | – |
| O=C(O)CC(CCc1ccccc1)OC1OC(CO)C(O)C(O)C1O (centres undefined) | – | inconclusive: -69.6% [inhibitor] |
| O=C(Nc1cccnc1)C1CC(c2ccc(Cl)c(Cl)c2)=NO1 (centres undefined) | inconclusive: 79.4 µM [inhibitor, single point] | – |
| NC(=O)Cc1ccc(C(=O)c2ccc(Cl)cc2Cl)s1 | inconclusive: 79.4 µM [inhibitor, partial curve, poor fit] | – |
| COc1ccc(NC2c3ccccc3C(=O)N2Cc2ccco2)cc1OC (centres undefined) | inconclusive: 15.8 µM [inhibitor, single point] | – |
| COc1ccc(OC)c(NC(=O)[C@@]2(CC(=O)O)CC(/C=C/c3ccccc3)=NO2)c1 | inconclusive: 79.4 µM [inhibitor, single point] | – |
| CN(C)c1ccc(CNC(=O)CN(C)S(=O)(=O)c2cccc3cccnc23)cc1 | inconclusive: 79.4 µM [inhibitor, partial curve, poor fit] | – |
| CN(C)C1(CN=Cc2cc(Cl)cc([N+](=O)[O-])c2O)CCCCC1 | inconclusive: 79.4 µM [inhibitor, single point] | – |
| Cc1ccc(C(=O)OCC(=O)Nc2ccc(C(N)=O)cc2)s1 | – | inactive: 3.77% [at 12.7 µM] |
| CN1/C(=C\C(=S)NC(=O)c2ccc([N+](=O)[O-])cc2)C(C)(C)c2ccccc21 | active: 44.7 µM | – |
| CC1CCN(S(=O)(=O)c2ccc(NC(=O)CN3CCN(C)CC3)cc2)CC1 | active: 11.2 µM | – |

| Compound | Potency | activity, negative = inhibition |
| --- | --- | --- |
| COc1ncc2nc(-c3cn(C)c4ccccc34)c(=O)n(CCc3ccccc3)c2n1 | – | inactive: 13.6% [at 0.501 µM] |
| Cc1cccc(NC(=O)CSc2nnc(-c3ccco3)c(-c3ccco3)n2)c1C | – | inactive: 21.6% [at 0.501 µM] |
| CCOc1ccc(NC2=C(Cl)C(=O)N(C3CCCCC3)C2=O)cc1 | inconclusive: 89.1 µM [inhibitor, single point] | – |
| CCC(Sc1nc(N)cc(N)n1)C(=O)O (centres undefined) | inactive | – |
| Cc1cc(C)c2c(c1)c(C)cc1nnc(SCC(=O)c3ccc(F)cc3)n12 | inactive | – |
| OC(COc1ccc(Cl)cc1)CN1CCCCC1 (centres undefined) | inconclusive: 79.4 µM [inhibitor, single point] | – |
| CC1Cc2cc(/C(O)=C3\C(=O)C(=O)N(Cc4cccnc4)C3c3ccccc3F)ccc2O1 (centres undefined) | inconclusive: 89.1 µM [inhibitor, single point] | – |
| COc1ccc(C2=NS(=O)(=O)N(C)C(C(=O)Nc3ccc(C)cc3)=C2)cc1 | inconclusive: 79.4 µM [inhibitor, single point] | – |
| Cc1ccc(NC(=O)CN2C(=O)NC(Cc3ccccc3)C2=O)cc1Cl (centres undefined) | – | inactive: 7.75% [at 12.7 µM] |
| COc1ccc(/C=N/NC(=O)C(=O)N2CCN(c3ccccc3OC)CC2)cc1 | inconclusive: 89.1 µM [inhibitor, single point] | – |
| CSCC(=O)N1CCC(CCC(=O)NC2CC2)CC1 | inactive | – |
| COc1ccc(N2CCN(C(c3ccccc3F)c3sc4nc(-c5ccco5)nn4c3O)CC2)cc1 (centres undefined) | inconclusive: 28.2 µM [inhibitor, single point] | – |
| O=C(Nc1cc(Sc2ccccn2)cc([N+](=O)[O-])c1)c1ccc(Cl)cc1 | inconclusive: 15.8 µM [inhibitor, full curve, poor fit] | – |
| COc1ccc([N+](=O)[O-])cc1NC(=O)CC1SC(=Nc2cccc(C)c2C)N(/N=C(\C)c2ccc(C)cc2)C1=O (centres undefined) | inconclusive: 50.1 µM [inhibitor, partial curve, poor fit] | – |
| CCOC(=O)CN1C(=O)/C(=C2\SC(=S)N(NC(=O)c3cccnc3)C2=O)c2ccccc21 | inconclusive: 89.1 µM [inhibitor, single point] | – |
| CCOc1ccc(C(c2c(O)cc(C)n(Cc3ccco3)c2=O)N2CCCCC2)cc1 (centres undefined) | inconclusive: 39.8 µM [inhibitor, partial curve, poor fit] | – |
| O=C(NCCC1CCCC1)c1cccs1 | inactive | – |
| CN(C)CCNC(=O)C(=O)NCC(c1ccc2c(c1)OCO2)N1CCOCC1 (centres undefined) | inactive | – |
| Cc1ccc2cc(C(c3nnnn3Cc3ccccc3)N3CCN(c4ccccc4)CC3)c(=O)[nH]c2c1 (centres undefined) | inconclusive: 2.82 µM [inhibitor, partial curve, poor fit] | – |
| Cc1c(C(=O)O)oc2c1-c1nn(Cc3ccc(Cl)cc3)cc1CC2 | inconclusive: 31.6 µM [inhibitor, single point] | – |
| O=C(Cc1ccc(S(=O)(=O)N2CCOCC2)s1)NCCc1ccc(F)cc1 | – | inconclusive: -62.2% [inhibitor] [at 2.33 µM] |
| COC(=O)c1cc(NC(=O)CC2CCCC2)cc(C(=O)OC)c1 | inconclusive: 89.1 µM [inhibitor, single point] | – |
| Cc1ccc(-n2c(O)c(C=Nc3ccc(S(=O)(=O)Nc4ncccn4)cc3)c3ccccc3c2=O)cc1C | inconclusive: 89.1 µM [inhibitor, partial curve, poor fit] | – |
